# Data reported in patent US20230277494A1, “TRANS-CROCETIN COMPOSITIONS AND TREATMENT REGIMENS” (priority 2020, published 2023).
# Like-named read-outs stand apart in the source and are kept apart here.
# How the values were obtained:
# [1] = tested on: CLP model used to induce severe grade sepsis; type: in vivo; conditions: control: saline plus 12.5 mg/kg imipenem twice daily; male mice
# [2] = tested on: CLP model used to induce severe grade sepsis; type: in vivo; conditions: control: saline vehicle plus 12.5 mg/kg imipenem twice daily; female mice
# [3] = tested on: CLP model used to induce severe grade sepsis; type: in vivo; conditions: control: saline vehicle plus 12.5 mg/kg imipenem twice daily; female mice; remark: listed apart in the source
# [4] = tested on: CLP model used to induce severe grade sepsis; test: L4L-121 Efficacy Study 1, CLP model; conditions: control: 0.9% saline IP daily plus 12.5 mg/kg imipenem twice daily; male mice
smiles,measurement,setting,value
C[C@@H](O)[C@H]1C(=O)N2C(C(=O)O)=C(SCCN=CN)C[C@H]12 [imipenem],mortality,[1],60%
same,death,[2],70%
same,death,[3],70%
same,mortality,[4],50%
